Experimental data from PubChem BioAssay AID2546 (National Center for Advancing Translational Sciences (NCATS), 2010).
Among all 310,000 compounds or so, about 11,000 (3.5%) were called active. The inconclusive results got no clear call from the source; some entries with a clear call stand among them for comparison. The call rests on the fitted dose curve; in most records, active means well fitted inhibition curve with a large enough effect; inconclusive means small, poorly fitted or top-dose-only effect, or effect the other way; inactive means flat fitted curve, though single readings scatter. Potencies of inconclusive entries are left out as doubtful fits.

Assay: VP16 counterscreen qHTS for inhibitors of ROR gamma transcriptional activity;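 further: Gal4-VP16 expression switched on by copper sulfate through the metallothionein promoter; nearly all actives have a fitted effect of over 50% in size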
Conditions: Drosophila S2 Gal4-VP16 UAS-luciferase, luminescence, 20 h; activity, negative = inhibition: at 53.6 µM (top of the series)
On the % scale 0 is the no-effect control and ±100 the full control effect; potency means the concentration at half of the fitted maximal effect; tags describe the fitted curve by direction and shape.

Row | Structure (SMILES) | Potency | activity, negative = inhibition
1 | COc1ccccc1-c1cc(SC)c(C#N)c(=O)o1 | inconclusive [inhibitor, single point] | –
2 | CC(C)Oc1cccc(C(=O)Nc2ncn[nH]2)c1 | inconclusive [inhibitor, single point] | –
3 | COc1ccc(OC)c(NC(=O)c2cc(-c3cc(C)cc(C)c3O)n[nH]2)c1 | inconclusive [inhibitor, single point] | –
4 | COc1ccc(C(=O)NC(=S)NCc2cccnc2)cc1Cl | inconclusive [inhibitor, single point] | –
5 | CC(C)c1ccccc1NC(=S)NCc1nc2ccccc2[nH]1 | inconclusive [inhibitor, single point] | –
6 | Cc1ccccc1Sc1ncnc2onc(C)c12 | inconclusive [inhibitor, single point] | –
7 | O=[N+]([O-])c1c(NCCO)cc(Sc2nc3ccccc3s2)c2nonc12 | active: 5.01 µM | –
8 | Cc1ccnc(NC(=O)/C=C/c2ccccc2Cl)c1 | active: 5.62 µM | –
9 | COc1ccc(/C(C)=N/NC(=O)c2nnn(-c3nonc3N)c2-c2ccccc2)cc1 | inconclusive [inhibitor, partial curve] | –
10 | Cc1cc(C)cc(-n2cc[nH]c2=S)c1 | active: 10 µM | –
11 | CN(Cc1c(C(=O)N/N=C/c2cccs2)nnn1-c1nonc1N)c1ccccc1 | inconclusive [inhibitor, single point] | –
12 | O=C(CN(Cc1ccccc1)S(=O)(=O)c1ccccc1)N/N=C/c1ccc2c(c1)OCO2 | active: 0.891 µM | –
13 | COc1ccc(N2CCN(C(=S)Nc3ccc(F)cc3)CC2)cc1 | – | inactive: 14.8%
14 | O=C(NC1CCCC1)C(c1c(F)cccc1Cl)N(C(=O)c1csnn1)C1CC1 (stereo not drawn) | – | inactive: 2.27%
15 | COc1ccc(COc2ccsc2C(=O)Nc2ccc(Cl)cc2)cc1 | inconclusive [inhibitor, single point] | –
16 | CN(Cc1ccccc1F)c1ccc(S(=O)(=O)N2CCCC2)cn1 | inconclusive [inhibitor, partial curve] | –
17 | Cc1ccc(Nc2nc(C)cs2)cc1 | inconclusive [inhibitor, single point] | –
18 | O=C1OC(CO)C(O)C(O)C1O (stereo not drawn) | – | inactive: 0.816%
19 | C=CCNc1sc(C(=O)C(C)(C)C)c(N)c1C#N | – | inactive: -13.4%

Row | Structure (SMILES) | Potency | activity, negative = inhibition
20 | CC(SC1=NCCS1)C(=O)Nc1nnc(-c2ccc(Cl)cc2)s1 (stereo not drawn) | active: 8.91 µM | –
21 | O=C(CC(SCCO)c1ccc2c(c1)OCO2)c1ccco1 (stereo not drawn) | inconclusive [inhibitor, single point] | –
22 | Cc1cnc(C(=O)NCCc2ccc(Cl)cc2)cn1 | – | inactive: -7.38%
23 | CC(C)(C)C(=O)Nc1ccc2oc(-c3cc(F)c(F)cc3Cl)nc2c1 | inconclusive [inhibitor, single point] | –
24 | O=c1oc(-c2ccccc2)nc2ccsc12 | inconclusive [inhibitor, single point] | –
25 | COc1cccc(/C=N/Nc2ncnc3c2ncn3Cc2ccccc2)c1O | inconclusive [inhibitor, single point] | –
26 | O=C(COc1ccc(Br)cc1)NNC(=S)NC(=O)c1ccccc1[N+](=O)[O-] | inconclusive [inhibitor, single point] | –
27 | O=C(N/N=C/c1ccc[nH]1)c1ccncc1 | inconclusive [inhibitor, partial curve, poor fit] | –
28 | COc1cccc(/C=N/NC(=O)CNC(=O)c2ccco2)c1O | active: 20 µM | –
29 | CCN(CC)c1ccc(-n2c(C)cc(C=O)c2C)cc1 | inconclusive [inhibitor, single point] | –
30 | CCS(=O)(=O)c1ncc(Cl)c(C(=O)Nc2ccc(C)cc2)n1 | active: 2 µM | –
31 | Cc1ccc(-c2cn3nc(-c4ccccc4)c(-c4ccccc4)nc3n2)cc1 | – | inactive: -2.49%
32 | CN(c1ccccc1)c1ccc(/C=N/NC(=O)CC#N)cc1 | inconclusive [inhibitor, single point] | –
33 | CC(=O)Nc1ccc(C(=O)CCl)cc1 | inconclusive [inhibitor, single point] | –
34 | c1ccc(-c2noc(-c3ccc4c(c3)OCO4)n2)nc1 | active: 3.16 µM | –
35 | CCN(CC)c1ccc(/C=N/NC(=O)CCC(=O)NCc2ccccc2)c(O)c1 | inconclusive [inhibitor, single point] | –
36 | Cc1cccc(-n2c(C)cc(/C=N/NC(=O)c3cccc([N+](=O)[O-])c3C)c2C)c1 | inconclusive [inhibitor, single point] | –
37 | O=C(CNCc1ccccc1)Nc1ccc(Cl)cc1 | inconclusive [activator, partial curve] | –
38 | O=C(Cn1nnc(-c2ccc(Cl)cc2)n1)NC1CCN(Cc2ccccc2)CC1 | inconclusive [inhibitor, partial curve] | –
